{"source": "patent US5389645A", "about": "“Substituted tyrosyl diamine amide compounds” (G. D. Searle & Co., priority 1992, dated 1995)", "note": "Structures can show the parent of a compound that is named as a salt."}
{"molecular_target": "μ opioid receptors (Rattus norvegicus, UniProt P33535)", "sequence (P33535 whole entry)": "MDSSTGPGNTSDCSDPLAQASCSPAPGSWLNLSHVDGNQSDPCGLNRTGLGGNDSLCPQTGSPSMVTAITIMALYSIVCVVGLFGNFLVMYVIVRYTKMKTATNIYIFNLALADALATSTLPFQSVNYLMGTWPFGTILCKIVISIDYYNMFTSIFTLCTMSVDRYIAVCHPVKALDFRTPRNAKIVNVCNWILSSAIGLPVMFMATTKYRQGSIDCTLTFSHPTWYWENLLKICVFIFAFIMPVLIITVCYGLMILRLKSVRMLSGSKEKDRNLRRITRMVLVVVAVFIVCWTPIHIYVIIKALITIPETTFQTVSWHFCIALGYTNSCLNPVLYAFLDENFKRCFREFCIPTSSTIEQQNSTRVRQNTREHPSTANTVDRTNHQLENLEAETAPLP", "experiment": "Opiate Binding Assay, displacement of 3[H]-DAMPGO from μ opioid receptors (rat forebrain membranes)", "conditions": "ratio of the mean IC50 values for the μ and δ opioid receptors; above 1.0 = more specific for δ; printed on both the μ and δ line"}
{"compound": "Cc1cc(O)cc(C)c1C[C@H](N)C(=O)NC(C)(C)CNC(=O)OCc1ccccc1", "note": "[Example 3, Phenylmethyl[2-[[2S-amino-3-(4-hydroxy-2,6-dimethylphenyl)-1-oxopropyl]amino]-2-methylpropyl]carbamate, monohydrochloride]", "Mean IC50 μ/δ Ratio": 6}
{"compound": "Cc1cc(O)cc(C)c1C[C@H](N)C(=O)NC(C)(C)CNC(=O)c1ccc2ccccc2n1", "note": "[Example 6, N-[2-[[2S-amino-3-(4-hydroxy-2,6-dimethylphenyl)-1-oxopropyl]amino]-2-methylpropyl]-2-quinolinecarboxamide, hydrochloride]", "Mean IC50 μ/δ Ratio": 0.4}
{"compound": "Cc1cc(O)cc(C)c1C[C@H](N)C(=O)NC(C)(C)CNC(=O)c1cnc2ccccc2c1", "note": "[Example 8, N-[2-[[2S-amino-3-(4-hydroxy-2,6-dimethylphenyl)-1-oxopropyl]amino]-2-methylpropyl]-3-quinolinecarboxamide, hydrochloride]", "Mean IC50 μ/δ Ratio": "< 0.4"}
{"compound": "Cc1cc(O)cc(C)c1C[C@H](N)C(=O)NC(C)(C)CNC(=O)NCc1ccccc1", "note": "[Example 10, αS-amino-N-[1,1-dimethyl-2-[[[(phenylmethyl)amino]carbonyl]amino]ethyl]-4-hydroxy.2,6-dimethylbenzenepropanamide, hydrochloride]", "Mean IC50 μ/δ Ratio": "< 0.43"}
{"compound": "Cc1cc(O)cc(C)c1C[C@H](N)C(=O)NCC(C)(C)NC(=O)NCc1ccccc1", "note": "[Example 11, αS-amino-4-hydroxy-2,6-dimethyl-N-[2-methyl-2-[[[(phenylmethyl)amino]carbonyl]amino]propyl]benzenepropanamide, hydrochloride]", "Mean IC50 μ/δ Ratio": 1.8}
{"compound": "Cc1cc(O)cc(C)c1C[C@H](N)C(=O)NC(C)(C)CNC(=O)CCc1ccccc1", "note": "[Example 13, αS-amino-N-[1,1-dimethyl-2-[(1-oxo-3-phenylpropyl)amino]ethyl]-4-hydroxy-2,6-dimethylbenzenepropanamide, hydrochloride]", "Mean IC50 μ/δ Ratio": "< 1.8"}
{"compound": "Cc1cc(O)cc(C)c1C[C@H](N)C(=O)NCC(C)(C)NC(=O)CCc1ccccc1", "note": "[Example 14, αS-Amino-4-hydroxy-2,6-dimethyl-N-[2-methyl-2-[(1-oxo-3-phenylpropyl)amino]propyl]benzenepropanamide, hydrochloride]", "Mean IC50 μ/δ Ratio": 0.4}
{"compound": "Cc1cc(O)cc(C)c1C[C@H](N)C(=O)N1CCN(Cc2ccccc2)CC1", "note": "[Example 15, 1-[2S-Amino-3-(4-hydroxy-2,6-dimethylphenyl)-1-oxopropyl]-4-(phenylmethyl)piperazine, dihydrochloride]", "Mean IC50 μ/δ Ratio": 0.3}
{"compound": "Cc1cc(O)cc(C)c1C[C@H](N)C(=O)NC(C)(C)CNC(=O)C#Cc1ccccc1", "note": "[Example 18, S-Amino-N-[1,1-dimethyl-2-[(1-oxo-3-phenyl-2-propynyl)amino]ethyl]-4-hydroxy-2,6-dimethylbenzenepropanamide, monohydrochloride]", "Mean IC50 μ/δ Ratio": "< 1.1"}
